Measurements: PubChem BioAssay AID1963576 (National Center for Advancing Translational Sciences (NCATS), 2024)
Among all 46,000 compounds or so, about 60 (0.1%) were called active. Roughly 3% stayed inconclusive and do not appear here. Calls follow the shape of the dose curve; as a rule, active = well fitted inhibition curve with a large enough effect; inconclusive = small, poorly fitted or top-dose-only effect; inactive = no such curve, though single readings can be large or run the other way. Some of the results follow.

experiment: Primary qHTS assay for Inhibitors of ovarian cancer metastasis using an organotypic tumor microenvironment (TME) model.; also: nearly all actives have a fitted effect of over 65% in size;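 as to activity change, negative = inhibition: plate controls were DMSO wells for no effect and tomatine positive control wells for full effect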; settings: SKOV3ip1-GFP adhesion/invasion on 3D omental model, fluorescence; series mostly up to 45.8 µM; activity change, negative = inhibition: at the top concentration
In short: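 Primary human omental fibroblast/mesothelial 3D culture pre-formed 48 h. SKOV3ip1-GFP cells added with compounds (0.36-46 umol/L), incubated 2 h RT/16 h 37 C, fixed; GFP cells quantified at 488/509 nm.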

| Structure (SMILES) | activity change, negative = inhibition | outcome |
| --- | --- | --- |
| Cc1ccc(CNC(=O)c2sc3ncnc(N(C)C4CCCCC4)c3c2C)cc1 | inactive: -2.24% |  |
| CCc1ccc(NC(=O)C2CCCN(S(=O)(=O)c3cccc4cccnc34)C2)cc1 (configuration not stated) |  | inactive |
| Cc1ccc2c(C)c(C(=O)N3CCC(c4nc5ccccc5s4)CC3)oc2c1C |  | inactive |
| COc1cc(OC)c(OC)cc1CN1CCc2nc(N3CCN(c4ccccc4F)CC3)ncc2C1 | inactive: -1.3% |  |
| COc1ccc(Nc2c(-c3ccco3)nc3cccc(C)n23)cc1 | inactive: 0.653% |  |
| O=C(Nc1ccccc1C(F)(F)F)Nc1c[nH]c(=O)[nH]c1=O | inactive: -7.64% |  |
| Cc1ccc(OCC(=O)N(Cc2ccc(Cl)cc2)CC2CCCO2)cc1C (configuration not stated) |  | inactive |
| Cc1c(C(=O)OC2CCCCC2)[nH]c2c1C(=O)CC(c1ccccc1)C2 (configuration not stated) | inactive: -6.17% |  |
| COc1ccc(C2C=C(c3ccccc3)Nc3nc(NS(=O)(=O)c4ccc(C)cc4)nn32)cc1 (configuration not stated) | inactive: 8.64% |  |
| Cc1ccc2oc(=O)c3cnn(CC(=O)N4CCN(c5cccc(C(F)(F)F)c5)CC4)c3c2c1 | inactive: -6.26% |  |
| O=S(=O)(c1cccc(C(F)(F)F)c1)N1CCC(Oc2ccc(-n3cnnn3)cc2)CC1 | inactive: 4.81% |  |
| CCC(C)NC(=O)CSc1nc2c(sc3ccccc32)c(=O)n1CCc1ccccc1 (configuration not stated) | inactive: 1.77% |  |
| CCN(CC)S(=O)(=O)c1ccc2c(c1)N(CC(=O)NCc1ccc(F)cc1)C(=O)CO2 | inactive: -5.12% |  |
| CCCOc1ccc(C2C(=O)N(C3CCCCCC3)CC(=O)N2Cc2ccc(OC)cc2)cc1OC (configuration not stated) |  | inactive |
| Cc1cc(N2CCN(c3cccc(C(F)(F)F)c3)CC2)n2nc(-c3ccccc3C)nc2n1 |  | inactive |
| CN(C)N=Nc1nc[nH]c1C(N)=O | inactive: -11.7% |  |
| O=C(Nc1cccnc1)N1CCC(Cc2cccc(Oc3ccc(C(F)(F)F)cn3)c2)CC1 | inactive: -3.69% |  |
| O=C(Nc1ccc([N+](=O)[O-])cc1Cl)c1cc(Cl)ccc1O | inactive: -15% |  |
| CCCN1CCc2nc(SCC(=O)Nc3ccc(C)c(Cl)c3)[nH]c(=O)c2C1 | inactive: 2.74% |  |
| CN(C)c1ccc(C2CC(c3c(O)n(C4CCCCC4)c(=O)[nH]c3=O)=Nc3ccccc3S2)cc1 (configuration not stated) | inactive: 1.31% |  |
| COc1cccc(NC(=O)Cn2c(=O)n(Cc3ccccc3)c(=O)c3c2c2cc(C)ccc2n3C)c1 | inactive: -29.2% |  |
| COc1ccc(NC(=O)C2=C(C)Nc3c(C(=O)Nc4ccc(C)cc4)cnn3C2c2cc(OC)ccc2OC)cc1 (configuration not stated) |  | inactive |
| Cc1cc(C)c2oc(-c3cc(NC(=O)Cc4ccccc4)ccc3Cl)nc2c1 | inactive: -0.939% |  |
| COC(=O)c1ccc(NC(=O)CCn2cccn2)cc1 | inactive: -1.15% |  |

| Structure (SMILES) | activity change, negative = inhibition | outcome |
| --- | --- | --- |
| c1ccc(CSc2nnc(C3CCNCC3)o2)cc1 | inactive: 3.65% |  |
| CCOc1ccc(C(=O)N2CCC(c3nc(-c4ccc(S(=O)(=O)N5CCCC5)cc4)no3)CC2)cc1 |  | inactive |
| CCOc1ccc(-c2cc3c(=O)n(Cc4nc(-c5ccc(OC)cc5OC)oc4C)ccn3n2)cc1Cl |  | inactive |
| COc1cccc(Oc2nc3c(c(=O)n(Cc4ccccc4Cl)c(=O)n3C)n2C)c1 | inactive: 5.07% |  |
| CCOc1ccc(NC(=O)N(Cc2ccc(CC)cc2)Cc2cn[nH]c2-c2ccc(OC)cc2)cc1 | inactive: 11% |  |
| Cc1ccc(C(C)C)c(OCC(=O)Nc2cccc(-c3nc4ncccc4o3)c2)c1 | inactive: -25.6% |  |
| O=c1[nH]c2ccc(NCc3ccc(-c4ccccc4F)o3)cc2[nH]1 | inactive: 1.07% |  |
| COc1ccc(C(=O)N2CC(=O)Nc3ccc(C)cc3C2c2ccc(F)cc2)c(OC)c1 (configuration not stated) | inactive: -8.95% |  |
| CC(=O)Nc1ccc(S(=O)(=O)NC2=NCN(C(C)C)CN2)cc1 |  | inactive |
| CCc1ccccc1OCCSc1nc(-c2cccs2)nc2cc(=O)[nH]n12 | inactive: 1.36% |  |
| COc1ccc(CNC(=O)c2ccc3c(c2)N(Cc2ccccc2)C(=O)c2ccccc2S3=O)cc1 (configuration not stated) | inactive: -2.83% |  |
| Cc1cc(F)ccc1NC(=O)C(C(C)C)N1Cc2ccccc2C1=O (configuration not stated) |  | inactive |
| COc1ccccc1NC(=O)c1nnn(-c2ccc(F)cc2)c1C | inactive: 0.0939% |  |
| CCC(=O)N1CCc2cc(Br)cc(S(=O)(=O)CCC(=O)NCCc3ccc(C)cc3)c21 |  | inactive |
| O=c1c(-c2cc(-c3ccc(Cl)cc3)nc3c2COc2ccccc2-3)coc2ccccc12 |  | inactive |
| Cc1sc2ncn(CC(=O)N3CCN(c4ccccc4F)CC3)c(=O)c2c1S(=O)(=O)N1CCN(c2ncccn2)CC1 |  | inactive |
| Cc1ccc(Cl)cc1N1CCN(C(=O)Cc2c(C(=O)O)c(C)cn2C)CC1 | inactive: -2.04% |  |
| CN(CC(=O)NCc1ccccc1Cl)S(=O)(=O)c1ccc2c(c1)c(=O)n(C)c(=O)n2C |  | inactive |
| COc1cn(CC(=O)Nc2cc(C)ccc2C)c(CN2CCCCC2)cc1=O | inactive: -8.54% |  |
| O=[N+]([O-])c1cc(-c2nc(-c3ccncc3)no2)ccc1NCc1ccccc1 | inactive: -1.64% |  |
| O=C(c1cn(CCOc2ccc(Cl)cc2)c2ccccc12)C1CCCCC1 | inactive: 3.4% |  |
| O=C(Nc1ccc2oc(-c3cccc(Cl)c3Cl)nc2c1)c1cccc(Br)c1 | inactive: -27.6% |  |
| CCOC(=O)c1cccc(NC(=O)N2CCC(CN3CCCCCC3)CC2)c1 | inactive: 0.972% |  |
